# Where “and” joins values, the source holds several entries; their conditions need not be identical. Equal values may be shown once. The campaign covered roughly 420,000 compounds. About 50,000 (12%) were called active. The shares of active, inactive and inconclusive entries below differ from those in the screen. Calls follow the shape of the dose curve; as a rule, active = well fitted inhibition curve with a large enough effect; inconclusive = small, poorly fitted or top-dose-only effect; inactive = flat fitted curve, though single readings scatter. Potencies beside an inconclusive call are fits to weak or partial responses and may not hold up.
# Test: qHTS for Inhibitors of human tyrosyl-DNA phosphodiesterase 1 (TDP1): qHTS in cells in presence of CPT; also: nearly all actives have a fitted effect of over 55% in size
# Conditions: chicken DT40 Tdp1-/-;hTDP1 cells + 20 nM CPT, ATP luminescence, 48 h; activity change, negative = growth inhibition: at 46.2 µM (top of the series)
# In short: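 Cell growth measured by CellTiter-Glo luminescence after a minimum 48 h, 37 C compound exposure with 20 nM CPT in Tdp1-knockout DT40 cells stably expressing hTDP1, seeded 400/well; qHTS titration format.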
# % is scaled to controls: 0 for no effect and ±100 for the full control effect; potency is read from the fitted curve at half-maximal effect; tags tell the direction and shape of the fitted curve.
Compound,Potency,"activity change, negative = growth inhibition"
CCc1cccc(NC(=O)Cn2c(=O)n(CC(=O)NCCc3ccccc3)c(=O)c3ccccc32)c1,"inconclusive: 23.1 µM [inhibitor, partial curve, poor fit]",–
C=CCC[C@H](Cc1ccc(F)cc1)C(=O)OC[C@@H](NC(=O)[C@H](CC=C)CC(=O)NCCO)C(C)(C)C,"inconclusive: 25.9 µM [inhibitor, single point]",–
Nc1ncc(Br)cc1S(=O)(=O)NCCC(=O)NC1CCCCC1,"inconclusive: 29.1 µM [inhibitor, single point]",–
CCN(Cc1ccccc1)Cc1nnnn1Cc1ccccc1,"inconclusive: 29.1 µM [inhibitor, single point]",–
CN(Cc1cnccn1)C(=O)C1CCC(=O)N(CCc2ccc(Cl)cc2)C1 (stereo not given),inactive,–
O=C(c1ccco1)N1CCN(C(=O)c2ccco2)C1=S,active: 2.59 µM,–
O=C(NC(Cc1ccccc1)C(=O)N1CCN(S(=O)(=O)c2ccccc2)CC1)c1ccccc1 (stereo not given),"inconclusive: 20.6 µM [inhibitor, single point]",–
Cc1cccc(N(CC(=O)NC(C)(C)C)C(=O)CS(=O)CC(=O)Nc2ccc(F)cc2)c1 (stereo not given),inactive,–
O=C(Nc1ccc(Br)cc1F)C1CCCN(S(=O)(=O)c2cnc[nH]2)C1 (stereo not given),–,inconclusive: -30% [inhibitor]
CC(=O)c1ccc(NC(=O)CCCN2C(=O)COc3ccc(C)cc32)cc1,"inconclusive: 25.9 µM [inhibitor, partial curve]",–
Cc1ccc(S(=O)(=O)c2nc(-c3ccccc3)oc2SCC(=O)NCC2CCCO2)cc1 (stereo not given),"inconclusive: 25.9 µM [inhibitor, single point]",–
COc1ccc(OC)c(/C=C/C(=O)N(C)CC(=O)Nc2ccc(C)cc2)c1,active: 6.51 µM,–
CC(C)(C)CN1CCN(Cc2nc(-c3ccc(F)cc3)cs2)CC1CCO (stereo not given),active: 16.4 µM,–
COc1cc2c(cc1OC)C(C)N(C(=O)C1COc3ccccc3O1)CC2 (stereo not given),active: 16.4 µM,–
c1ccc(-c2csc3nnc(SCc4ccc5c(c4)OCO5)n23)cc1,"inconclusive: 29.1 µM [inhibitor, single point]",–
CC1=NN(C(=O)c2ccc(C)o2)C(O)(c2ccccc2)C1 (stereo not given),active: 4.61 µM,–
Cc1cc(NC(=O)CSc2nc3c(cc2C#N)CCCCC3)no1,"inconclusive: 23.1 µM [inhibitor, single point]",–
CCOc1ccc(N(CC(=O)Nc2nccs2)S(=O)(=O)c2c(C)noc2C)cc1,"inconclusive: 18.4 µM [inhibitor, single point]",–
Cc1ccc(OCCn2c(CCNC(=O)C(C)C)nc3ccccc32)cc1,"inconclusive: 29.1 µM [inhibitor, single point]",–
COc1ccc(-c2cnnn2-c2ccc(NC(=O)/C=C/c3ccc(OC)c(OC)c3)cc2)cc1,"inconclusive: 29.1 µM [inhibitor, single point]",–
Cc1occc1C(=O)N1CCCC(N2CCN(c3cccc(C(F)(F)F)c3)CC2)C1 (stereo not given),active: 20.6 µM,–
CCCc1nnc(NC(=O)CCC(=O)NC2CCCC2)s1,inactive,–
COc1ccccc1CNC(=O)C1CCCCN1S(=O)(=O)c1ccccc1 (stereo not given),"inconclusive: 23.1 µM [inhibitor, single point]",–

Compound,Potency,"activity change, negative = growth inhibition"
Cc1c2ccccc2nc2c(F)c(NCCO)c(F)c(F)c12,"inconclusive: 23.1 µM [inhibitor, single point]",–
CC1CCCC(C)N1CCNC(=O)CCc1nnc2n(Cc3ccccc3)c(=O)c3ccccc3n12 (stereo not given),inactive,–
O=C(NC1CC1)c1cc2c(s1)-c1ccccc1OC2,"inconclusive: 23.1 µM [inhibitor, single point]",–
COc1cc2ncnc(NCc3ccc(Cl)cc3)c2cc1OC,"inconclusive: 20.6 µM [inhibitor, single point]",–
Cc1cccc(NC(=O)CCC2CCN(C(=O)C3CC=CCC3)CC2)c1 (stereo not given),active: 11.6 µM,–
CCN(CC)S(=O)(=O)c1cccc(C(=O)N[C@H](C(=O)Nc2nc3ccc(F)cc3s2)C(C)C)c1,active: 16.4 µM,–
CCCCCc1ccc(-c2cn(CCCOCc3ccccc3)nn2)cc1,"inconclusive: 35.5 µM [inhibitor, single point] and inconclusive: 29.1 µM [inhibitor, single point]",–
CCOC(=O)C1=CCN(S(=O)(=O)c2ccccc2Cl)C1c1cccc(C)c1 (stereo not given),"inconclusive: 20.6 µM [inhibitor, single point]",–
Cc1cc(NC(=O)COC(=O)c2ccccc2S(=O)(=O)N(C)c2ccccc2)no1,inactive,–
CC(=O)OCCn1c(=O)c2cc3c(=O)n(CCOC(C)=O)c(=O)c3cc2c1=O,"inconclusive: 29.1 µM [inhibitor, single point]",–
COC(=O)[C@]12CCCCC=C1N(Cc1ccco1)C(=O)[C@H](CC(=O)NCCCCc1ccccc1)C2,"inconclusive: 29.1 µM [inhibitor, single point]",–
CCCCCn1nnnc1-c1nc2cc(C)c(C)cc2[nH]c1=O,"inconclusive: 29.1 µM [inhibitor, single point]",–
Cc1ccc(C)c(CNC(=O)CCn2cccn2)c1,inactive,–
Cc1nc(Nc2ccccc2)c2oc3ccc(Cl)cc3c2n1,"inconclusive: 29.1 µM [inhibitor, single point]",–
O=C(Nc1ccc2nc(SCC(=O)N3CCCC3)sc2c1)c1cccc(Br)c1,"inconclusive: 20.6 µM [inhibitor, single point]",–
Cc1ccc(S(=O)(=O)CCC(=O)NC2CCCCC2)cc1,active: 18.4 µM,–
COC(=O)c1ccc(Cl)cc1NC(=O)/C=C/c1ccc(C)o1,inactive,–
COc1ncc2nc(-c3ccc(F)cc3)c(=O)n(CCC#N)c2n1,inactive,–
Cc1ccc(OCC(=O)Oc2ccc(C)c(C)c2)cc1,inactive,–
O=S(=O)(Nc1ccc(N2CCCCC2)cc1)c1ccc(F)c(F)c1,"inconclusive: 18.4 µM [inhibitor, partial curve, poor fit]",–
Cc1ccnc2nc(C(=O)Nc3nc(-c4ccccn4)cs3)nn12,inactive,–
O=C1C(Cl)=C(Oc2ccccc2)C(=O)c2ccccc21,active: 0.326 µM,–
